The chains are these.
B1: OR4K15 (parent)
chain: GUUAACGGUCAUAGGCCAUGGAAACUAGGAGCACCAUUUCGCUGCCAGUGAAGAAAUGAACAAAGAAAAUCUGGGCCAGGCAGGCAUCAAAAGAAAUAGUCUUGCGCUCAACCAGAAAGUCUGUAAUCAUUUUAAGGGUA

The source gives no read counts; variants with many changes may rest on few reads.

This data set covers variants of B1. Briefly: self-cleavage, relative activity (ratio to wild type); higher = more cleavage; in vitro, sequencing; the parent is a self-cleaving ribozyme.
For the variant A27U A55G U102A U139C, the self-cleavage was 0.64.

A30G A86G A89G U108A A126G U132C G136U: the self-cleavage is 0.01.

In the case of A30G A82G U103C U130C, the self-cleavage was found to be 1.92.

Regarding A30C A66G U139C, the self-cleavage worked out at 1.4.

For A30G A33G A64G, the self-cleavage came to 0.43.

In the case of A30G A47G A67U, the self-cleavage is 1.38.

For A30G A51C U102A, the self-cleavage was found to be 1.04.

Take A30G A62U A64U A98G: the self-cleavage stood at 0.24.

With A30G C46U A68G A95G G119A, the self-cleavage turned out to be 1.28.

With A30C A110G U120C, the self-cleavage is 0.05.

With A30G A62U A135U, the self-cleavage is 1.27.

Turning to A30G U39C A91G A126G, the self-cleavage turned out to be 0.63.

Consider G29A A30G A90G, for which the self-cleavage came to 1.09.

Regarding A30G C32U A98U, the self-cleavage came out at 1.14.

With A30G A55G A69G, the self-cleavage amounted to 1.19.

Take A27U U49C A56G A110G: the self-cleavage was determined as 0.12.

Turning to A30G U38A A59G U124C, the self-cleavage was 1.38.

Take A30G A82G A86G U131C: the self-cleavage stood at 0.14.

G28A A30G U37C U57A: the self-cleavage turned out to be 1.03.

For A30C A59G C113U U127A, the self-cleavage came to 0.02.

G29A U38C A67G A86G: the self-cleavage amounted to 1.5.

For A30G A55G A116G U131C, the self-cleavage turned out to be 0.56.

With A30G U43A A51G A59U U70C U102C A135U, the self-cleavage amounted to 0.74.

Consider G29A U72A U127C, for which the self-cleavage stood at 0.15.

Take A30G C35U U133A: the self-cleavage was 0.96.

Regarding A30G U38C A63U U97A A98C U100C A126U, the self-cleavage was 1.99.

As for A30G G65A U108C A114G, the self-cleavage was 0.

For the variant A30G U37C A90G A110G U122C, the self-cleavage turned out to be 0.02.

As to A27U A51G A62G, the self-cleavage amounted to 1.02.

For A27G U49C U72C U87C A110G, the self-cleavage is 0.01.

A30G C105U U127A: the self-cleavage was found to be 0.49.

With A27U A111G A129G, the self-cleavage stood at 0.

A27G U49C A95G: the self-cleavage was 1.86.

Take A30G A33G A60G A68G G74C A78U A118G U120C: the self-cleavage stood at 0.04.

A30G U39C A51G A63G U132C: the self-cleavage worked out at 1.34.

As for A30G A51G U100A, the self-cleavage is 0.23.

In the case of A30G A54G A86G, the self-cleavage is 0.59.

With A27G U43C A125G, the self-cleavage came out at 0.18.

As for A30G A51G A60U, the self-cleavage came out at 2.15.

As for G29A A55G A62C, the self-cleavage came to 1.43.

For the variant A27U A30G U49A A68U U72A C81U, the self-cleavage was 0.21.

With G29A A59G A63G A64G, the self-cleavage came out at 1.75.

With A30G A89G U100C A118G, the self-cleavage came to 0.75.

Take G28U A59G C77U A90G: the self-cleavage was found to be 0.81.

In the case of A30G G48A U97A U100C, the self-cleavage amounted to 2.12.

Turning to A30G A114U U122C, the self-cleavage turned out to be 0.04.

On to A30C A51G A64G U70C U87C A89G A114U U120C, for which the self-cleavage was determined as 0.01.

For A30G A68C A126G, the self-cleavage was 1.03.

As for G28U A51G G137A, the self-cleavage came to 1.49.

For A30G A36U U57C, the self-cleavage was 0.95.

On to A27G U49C A98G C113A, for which the self-cleavage turned out to be 0.01.

Turning to G28A U102A U133C, the self-cleavage amounted to 0.96.

In the case of A27U A69U A117G U131C, the self-cleavage turned out to be 1.14.

Consider A27U A92G U124C, for which the self-cleavage was 1.12.

With A30G A66G A117G U124C, the self-cleavage was found to be 1.12.

Regarding G29C A52G U57C A66U A94G, the self-cleavage was 0.94.

As to A30G A67C U70C A86U U108A G123A, the self-cleavage turned out to be 0.01.

As to A30G A36G U132C, the self-cleavage came out at 1.95.

G29A A67G U122C: the self-cleavage came to 0.84.

For A30G A33G U38C U70C, the self-cleavage was found to be 0.49.

Regarding A30G A64G A86G, the self-cleavage turned out to be 1.82.

For A30G A55G A92G A134U, the self-cleavage is 0.97.

As for A30G A51G G104A U122C, the self-cleavage came out at 0.03.

On to A30G U37C U49C A60G A96G, for which the self-cleavage worked out at 1.22.

Turning to A27G U70C A111G U120C, the self-cleavage is 0.01.

Consider A30G A94G U131A, for which the self-cleavage was 1.13.

For A27U A98G U103A, the self-cleavage was 0.04.

For the variant G29U A82U A111G, the self-cleavage is 0.02.

For A27U A64U A96G U103C A114G, the self-cleavage turned out to be 0.25.

As for A30G A56G A94G, the self-cleavage was found to be 1.47.

Consider A30G G44A U72C A90G A129C, for which the self-cleavage stood at 0.11.

With A30G A36C A89G A118G, the self-cleavage turned out to be 0.63.

Regarding A30C A55G A59G U72C A110G, the self-cleavage amounted to 0.11.

Regarding G28A A67G A116U U132C, the self-cleavage is 0.21.

As to A30G A92G U100C A116U, the self-cleavage came out at 0.83.

Take A30G A59G U131C: the self-cleavage is 2.15.

On to A30G A66G U139C, for which the self-cleavage turned out to be 1.37.

As for A30G U37C A56C G119A, the self-cleavage came out at 2.47.

As for A27G U97C A110G U130C, the self-cleavage amounted to 0.03.

In the case of A30G A51G A126G, the self-cleavage is 1.44.

For the variant A30G A59G U132A, the self-cleavage came to 1.53.

Regarding G28A A59G U108C, the self-cleavage was 0.02.

A30G A56G U131C: the self-cleavage came to 0.65.

As for A30G A33C U49A A68G U124C, the self-cleavage came to 0.72.

In the case of A30G A95G A129U, the self-cleavage was determined as 0.89.

A27G U102C U122C: the self-cleavage came out at 2.15.

Consider A30G A82U A91G, for which the self-cleavage was 0.23.

Turning to A30G A52G C61U U72A, the self-cleavage amounted to 0.38.

In the case of A27U A96G C112U, the self-cleavage is 0.01.

In the case of A30G A90U A126G, the self-cleavage was found to be 0.7.

Consider A30C U100C A110G U124C, for which the self-cleavage was 0.12.

A27U U43C A56G U70C U122C: the self-cleavage turned out to be 0.39.

Regarding A30G A52G A60G A96G, the self-cleavage turned out to be 0.99.

For the variant A30G A51U G84A, the self-cleavage came out at 0.

Regarding A30G A114U U120G, the self-cleavage is 0.01.

For the variant A30G C34U A51C A55U A60U, the self-cleavage was found to be 1.03.

Take A30G A78G U87C: the self-cleavage was determined as 0.33.

As to A30G U37C A52G A67G, the self-cleavage came to 0.83.

Take A30G G74U A89U U102G: the self-cleavage is 0.05.

A30G U43A A52G U57A: the self-cleavage was 1.65.

Consider A27G U49C C61U A67G A118G, for which the self-cleavage amounted to 0.32.

Consider A30G A33G A64G A82C C85A, for which the self-cleavage amounted to 0.12.

On to A30G U37C A140G, for which the self-cleavage was 1.06.

Consider G29A U100C A110G A140G, for which the self-cleavage stood at 0.18.

Turning to A30G U38C A47G U49C A51G, the self-cleavage was 1.01.

Take A27U U87G A90G A92G: the self-cleavage amounted to 0.59.

In the case of A30G A90G U100A U127C, the self-cleavage amounted to 0.29.

Consider G29A U39A A56G A62G U100C U133C, for which the self-cleavage worked out at 2.96.

As for A30G A51G U108A U122C, the self-cleavage came to 0.02.

For A27U A68G A82G, the self-cleavage was 0.55.

On to A30G U37C A60G, for which the self-cleavage came to 1.85.

As to A27G U108C U122C, the self-cleavage is 0.

Take G29U U43G U70C A90U A96U: the self-cleavage came out at 2.08.

Regarding A30G A55G A117G, the self-cleavage was 1.38.

Consider A30G G41A U43C, for which the self-cleavage was determined as 1.23.

On to A30G A90U U131C, for which the self-cleavage was determined as 1.45.

Regarding A30G A64G U100A U127A G137U, the self-cleavage worked out at 0.91.

For the variant A30G A52G A59G A66G A90U, the self-cleavage came out at 1.11.

As to A30C A63G U87C A94U, the self-cleavage was 1.94.

On to G29U A52G A118G, for which the self-cleavage was 1.2.

With A27G U70C A82G A96G, the self-cleavage was 0.14.

As for G29A A59G U120A, the self-cleavage worked out at 1.41.

On to A30G U39C A63G G75U U127C, for which the self-cleavage worked out at 0.06.

Regarding A30G A90G A116U, the self-cleavage is 0.5.

For G28U A52G A90G A110G, the self-cleavage was determined as 0.21.

As for A30G A59G U122C A129G, the self-cleavage is 1.49.

Turning to A30G A78G A86G A91G, the self-cleavage is 0.02.

Regarding A27U A52G A63G A68G G80A, the self-cleavage was found to be 0.27.

A30G A33C A66G U70C A118G: the self-cleavage amounted to 0.26.

Take A30G A98G A118G: the self-cleavage stood at 0.26.

With A30G C85U A94G U103C U130A, the self-cleavage is 0.12.

Regarding A30G A63G A110U, the self-cleavage came out at 1.41.

As to G28U A33U U37C A78G, the self-cleavage was 0.31.

For the variant A30G A33C A47G A66U U87C U100C, the self-cleavage was determined as 1.4.

In the case of A30G A62G A67G A68G, the self-cleavage stood at 0.36.

For the variant A27G U102C U127A, the self-cleavage was determined as 1.28.

For A30G A96G A134U, the self-cleavage worked out at 1.79.

Turning to A30G A96G A116U U133C, the self-cleavage came to 0.21.

As to A30G A47U A95G, the self-cleavage came to 1.2.

As for A30G G44A A60G A111U, the self-cleavage is 0.1.

For A30G G84U A96G U132C, the self-cleavage came out at 0.52.

For A30G G73U A114U, the self-cleavage was found to be 0.07.

Turning to G29A U49C A56U A68G A125G, the self-cleavage came out at 0.32.

Consider A30G U37A A140G, for which the self-cleavage was 1.64.

With A30G A36G A47G, the self-cleavage came to 1.99.

As to G29A U72A A89G U132C, the self-cleavage stood at 0.29.

A30G A92G U102C A116G: the self-cleavage turned out to be 1.06.

As for A30G A96G U127C, the self-cleavage is 1.09.

In the case of G28C A33G U38A, the self-cleavage worked out at 0.52.

Consider A27U A94G U103C, for which the self-cleavage came to 1.96.

A30G A33G U108C: the self-cleavage worked out at 0.09.

G29C A82G U132C: the self-cleavage was found to be 0.54.

A27U C76U G79A A89G: the self-cleavage worked out at 0.06.

For A30G U38C A47G, the self-cleavage was 1.12.

Take A30G C40A A114U: the self-cleavage was determined as 0.27.

Regarding A30G U38C U49C A126G, the self-cleavage worked out at 0.66.

On to A30C A55U A116U, for which the self-cleavage was determined as 0.12.

In the case of A27G U49C A63G U122A U133C, the self-cleavage was 1.05.

Regarding A30G U38C A62G U127C, the self-cleavage stood at 0.84.

Consider A30G A54G A66G, for which the self-cleavage worked out at 1.27.

Take A30G A56G A60G G104U: the self-cleavage worked out at 0.02.

Regarding A30G A114G U130C, the self-cleavage was 0.22.

Consider G29U U49A A110G A116G A140G, for which the self-cleavage is 0.06.

As to G29U A55G G83A U133A, the self-cleavage amounted to 1.79.

Regarding A30G U37A U130A, the self-cleavage was found to be 1.47.

Consider A27G U43C A91G U102A C105U A117U, for which the self-cleavage came out at 0.08.

Consider A30G A68G U87A A96G, for which the self-cleavage is 2.17.

The values above are taken from the RNAGym collection of RNA variant scans (doi:10.7554/elife.90254).
